# Test results taken from the supplement of paper PMC8728848.
# The list shows a part of the results.
# Key:
# Assay in all cases: glycan array binding signal (z-score within array); higher = stronger binding
# Details in all cases: glycan notation: IUPAC condensed, linker removed
# [1] = target: Neu5Ac(a2-3)Gal(b1-4)GlcNAc(b1-2)[Neu5Ac(a2-3)Gal(b1-4)GlcNAc(b1-6)]Man(a1-6)[Neu5Ac(a2-3)Gal(b1-4)GlcNAc(b1-2)Man(a1-3)][GlcNAc(b1-4)]Man(b1-4)GlcNAc(b1-4)GlcNAc
# Method in brief: (§1)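 Arrays were curated from the Consortium for Functional Glycomics database, 3228 in total, and kept only where the protein sequence was available. Binding is expressed as a within-array Z-score. This score was averaged across arrays of the same protein sequence at different concentrations or buffers and across linkers, and negative values can be read as non-binding.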
# [2] = target: Neu5Ac(a2-3)Gal(b1-4)GlcNAc(b1-3)Gal
# Method in brief: as §1
# [3] = target: Neu5Ac(a2-3)Gal(b1-4)GlcNAc(b1-3)Gal(b1-3)GlcNAc
# Method in brief: as §1
# [4] = target: Neu5Ac(a2-3)Gal(b1-4)GlcNAc(b1-3)Gal(b1-4)GlcNAc
# Method in brief: as §1
# [5] = target: Neu5Ac(a2-3)Gal(b1-4)GlcNAc(b1-3)Gal(b1-4)GlcNAc(b1-2)Man(a1-3)[Neu5Ac(a2-3)Gal(b1-4)GlcNAc(b1-3)Gal(b1-4)GlcNAc(b1-2)Man(a1-6)]Man(b1-4)GlcNAc(b1-4)GlcNAc
# Method in brief: as §1
# [6] = target: Neu5Ac(a2-3)Gal(b1-4)GlcNAc(b1-3)Gal(b1-4)GlcNAc(b1-3)Gal(b1-4)GlcNAc
# Method in brief: as §1
# [7] = target: Neu5Ac(a2-3)Gal(b1-4)GlcNAc(b1-3)Gal(b1-4)GlcNAc(b1-3)Gal(b1-4)GlcNAc(b1-2)Man(a1-3)[Neu5Ac(a2-3)Gal(b1-4)GlcNAc(b1-3)Gal(b1-4)GlcNAc(b1-3)Gal(b1-4)GlcNAc(b1-2)Man(a1-6)]GalNAc
# Method in brief: as §1
# [8] = target: Neu5Ac(a2-3)Gal(b1-4)GlcNAc(b1-3)Gal(b1-4)GlcNAc(b1-3)GalNAc
# Method in brief: as §1
# [9] = target: Neu5Ac(a2-3)Gal(b1-4)GlcNAc(b1-3)Gal(b1-4)GlcNAc(b1-3)[Neu5Ac(a2-3)Gal(b1-4)GlcNAc(b1-3)Gal(b1-4)GlcNAc(b1-6)]GalNAc
# Method in brief: as §1
# [10] = target: Neu5Ac(a2-3)Gal(b1-4)GlcNAc(b1-3)Gal(b1-4)GlcNAc(b1-6)[Gal(b1-3)]GalNAc
# Method in brief: as §1
# [11] = target: Neu5Ac(a2-3)Gal(b1-4)GlcNAc(b1-3)Gal(b1-4)[Fuc(a1-3)]GlcNAc
# Method in brief: as §1
# [12] = target: Neu5Ac(a2-3)Gal(b1-4)GlcNAc(b1-3)GalNAc
# Method in brief: as §1
# [13] = target: Neu5Ac(a2-3)Gal(b1-4)GlcNAc(b1-3)[Neu5Ac(a2-3)Gal(b1-4)GlcNAc(b1-6)]GalNAc
# Method in brief: as §1
# [14] = target: Neu5Ac(a2-3)Gal(b1-4)GlcNAc(b1-6)GalNAc
# Method in brief: as §1
# [15] = target: Neu5Ac(a2-3)Gal(b1-4)GlcNAc(b1-6)[Gal(b1-3)]GalNAc
# Method in brief: as §1
# [16] = target: Neu5Ac(a2-3)Gal(b1-4)GlcNAc(b1-6)[Neu5Ac(a2-3)Gal(b1-3)]GalNAc
# Method in brief: as §1
# [17] = target: Neu5Ac(a2-3)Gal(b1-4)GlcNAc6S
# Method in brief: as §1
# [18] = target: Neu5Ac(a2-3)Gal(b1-4)[Fuc(a1-3)]GlcNAc
# Method in brief: as §1
# [19] = target: Neu5Ac(a2-3)Gal(b1-4)[Fuc(a1-3)]GlcNAc(b1-2)Man
# Method in brief: as §1
# [20] = target: Neu5Ac(a2-3)Gal(b1-4)[Fuc(a1-3)]GlcNAc(b1-3)Gal
# Method in brief: as §1
# [21] = target: Neu5Ac(a2-3)Gal(b1-4)[Fuc(a1-3)]GlcNAc(b1-3)Gal(b1-4)GlcNAc
# Method in brief: as §1
# [22] = target: Neu5Ac(a2-3)Gal(b1-4)[Fuc(a1-3)]GlcNAc(b1-3)Gal(b1-4)[Fuc(a1-3)]GlcNAc(b1-3)Gal(b1-4)[Fuc(a1-3)]GlcNAc
# Method in brief: as §1
# [23] = target: Neu5Ac(a2-3)Gal(b1-4)[Fuc(a1-3)]GlcNAc(b1-3)GalNAc
# Method in brief: as §1
# [24] = target: Neu5Ac(a2-3)Gal(b1-4)[Fuc(a1-3)]GlcNAc(b1-6)[Gal(b1-3)]GalNAc
# Method in brief: as §1
# [25] = target: Neu5Ac(a2-3)Gal(b1-4)[Fuc(a1-3)]GlcNAc(b1-6)[Neu5Ac(a2-3)Gal(b1-3)]GalNAc
# Method in brief: as §1
# [26] = target: Neu5Ac(a2-3)Gal(b1-4)[Fuc(a1-3)]GlcNAc6S
# Method in brief: as §1
# [27] = target: Neu5Ac(a2-3)Gal6S(b1-4)GlcNAc
# Method in brief: as §1
# [28] = target: Neu5Ac(a2-3)Gal6S(b1-4)[Fuc(a1-3)]GlcNAc
# Method in brief: as §1
# [29] = target: Neu5Ac(a2-3)GalNAc
# Method in brief: as §1
# [30] = target: Neu5Ac(a2-3)GalNAc(b1-4)GlcNAc
# Method in brief: as §1
# [31] = target: Neu5Ac(a2-3)[GalNAc(b1-4)]Gal(b1-4)Glc
# Method in brief: as §1
# [32] = target: Neu5Ac(a2-3)[GalNAc(b1-4)]Gal(b1-4)GlcNAc
# Method in brief: as §1
# [33] = target: Neu5Ac(a2-3)[GalNAc(b1-4)]Gal(b1-4)GlcNAc(b1-3)GalNAc
# Method in brief: as §1
# [34] = target: Neu5Ac(a2-3)[Neu5Ac(a2-6)]GalNAc
# Method in brief: as §1
# [35] = target: Neu5Ac(a2-6)Gal
# Method in brief: as §1
# [36] = target: Neu5Ac(a2-6)Gal(b1-3)GlcNAc(b1-3)[Gal(b1-4)GlcNAc(b1-6)]Gal(b1-4)Glc
# Method in brief: as §1
# [37] = target: Neu5Ac(a2-6)Gal(b1-4)Glc
# Method in brief: as §1
# [38] = target: Neu5Ac(a2-6)Gal(b1-4)GlcNAc
# Method in brief: as §1
# [39] = target: Neu5Ac(a2-6)Gal(b1-4)GlcNAc(b1-2)Man
# Method in brief: as §1
# [40] = target: Neu5Ac(a2-6)Gal(b1-4)GlcNAc(b1-2)Man(a1-3)Man(b1-4)GlcNAc(b1-4)GlcNAc
# Method in brief: as §1
# [41] = target: Neu5Ac(a2-6)Gal(b1-4)GlcNAc(b1-2)Man(a1-3)[Gal(b1-4)GlcNAc(b1-2)Man(a1-6)]Man(b1-4)GlcNAc(b1-4)GlcNAc
# Method in brief: as §1
# [42] = target: Neu5Ac(a2-6)Gal(b1-4)GlcNAc(b1-2)Man(a1-3)[GlcNAc(b1-2)Man(a1-6)]Man(b1-4)GlcNAc(b1-4)GlcNAc
# Method in brief: as §1
# [43] = target: Neu5Ac(a2-6)Gal(b1-4)GlcNAc(b1-2)Man(a1-3)[GlcNAc(b1-4)][Neu5Ac(a2-6)Gal(b1-4)GlcNAc(b1-2)Man(a1-6)]Man(b1-4)GlcNAc(b1-4)GlcNAc
# Method in brief: as §1
# [44] = target: Neu5Ac(a2-6)Gal(b1-4)GlcNAc(b1-2)Man(a1-3)[Man(a1-6)]Man(b1-4)GlcNAc(b1-4)GlcNAc
# Method in brief: as §1
# [45] = target: Neu5Ac(a2-6)Gal(b1-4)GlcNAc(b1-2)Man(a1-3)[Neu5Ac(a2-3)Gal(b1-4)GlcNAc(b1-2)Man(a1-6)]Man(b1-4)GlcNAc(b1-4)GlcNAc
# Method in brief: as §1
# [46] = target: Neu5Ac(a2-6)Gal(b1-4)GlcNAc(b1-2)Man(a1-3)[Neu5Ac(a2-6)Gal(b1-4)GlcNAc(b1-2)Man(a1-6)]Man(b1-4)GlcNAc(b1-4)GlcNAc
# Method in brief: as §1
# [47] = target: Neu5Ac(a2-6)Gal(b1-4)GlcNAc(b1-2)Man(a1-3)[Neu5Ac(a2-6)Gal(b1-4)GlcNAc(b1-2)Man(a1-6)]Man(b1-4)GlcNAc(b1-4)[Fuc(a1-6)]GlcNAc
# Method in brief: as §1
# [48] = target: Neu5Ac(a2-6)Gal(b1-4)GlcNAc(b1-2)Man(a1-6)Man(b1-4)GlcNAc(b1-4)GlcNAc
# Method in brief: as §1
# [49] = target: Neu5Ac(a2-6)Gal(b1-4)GlcNAc(b1-2)Man(a1-6)[Gal(b1-4)GlcNAc(b1-2)Man(a1-3)]Man(b1-4)GlcNAc(b1-4)GlcNAc
# Method in brief: as §1
# [50] = target: Neu5Ac(a2-6)Gal(b1-4)GlcNAc(b1-2)Man(a1-6)[GlcNAc(b1-2)Man(a1-3)]Man(b1-4)GlcNAc(b1-4)GlcNAc
# Method in brief: as §1
# [51] = target: Neu5Ac(a2-6)Gal(b1-4)GlcNAc(b1-2)Man(a1-6)[Man(a1-3)]Man(b1-4)GlcNAc(b1-4)GlcNAc
# Method in brief: as §1
# [52] = target: Neu5Ac(a2-6)Gal(b1-4)GlcNAc(b1-2)[Neu5Ac(a2-6)Gal(b1-4)GlcNAc(b1-4)]Man(a1-3)[GlcNAc(b1-4)][Neu5Ac(a2-6)Gal(b1-4)GlcNAc(b1-2)[Neu5Ac(a2-6)Gal(b1-4)GlcNAc(b1-6)]Man(a1-6)]Man(b1-4)GlcNAc(b1-4)GlcNAc
# Method in brief: as §1
# [53] = target: Neu5Ac(a2-6)Gal(b1-4)GlcNAc(b1-2)[Neu5Ac(a2-6)Gal(b1-4)GlcNAc(b1-4)]Man(a1-3)[GlcNAc(b1-4)][Neu5Ac(a2-6)Gal(b1-4)GlcNAc(b1-4)Man(a1-6)]Man(b1-4)GlcNAc(b1-4)GlcNAc
# Method in brief: as §1
binder,measurement,setting,value
GSL-I (Griffonia simplicifolia) (protein) FNLPNFWSDVKDNIIFQGDANTTAGTLQLCKTNQYGNPLQYRAGRALYSDPVQLWDNKTGSVASFYTEFTFFLKITGDGPADGLAFFLAPPDSDVKDAGAYLGLFNKSTATQPSKNQVVAVEFDTWKNTDFPEPSYRHIGINVNSIVSVATKRWEDSDIFSGKIATARISYDGSAKILTVVLSYPDGADYILSHSVDLSKNLPNPIRVGISASTGANQFLTVYVLSWRFSSALQSTSVNAAMGPEIIRTVV,glycan array binding signal (z-score),[1],-0.315
same,glycan array binding signal (z-score),[2],-0.286
same,glycan array binding signal (z-score),[3],-0.257
same,glycan array binding signal (z-score),[4],-0.155
same,glycan array binding signal (z-score),[5],0.912
same,glycan array binding signal (z-score),[6],-0.261
same,glycan array binding signal (z-score),[7],2.34
same,glycan array binding signal (z-score),[8],-0.304
same,glycan array binding signal (z-score),[9],0.139
same,glycan array binding signal (z-score),[10],0.089
same,glycan array binding signal (z-score),[11],-0.249
same,glycan array binding signal (z-score),[12],-0.241
same,glycan array binding signal (z-score),[13],-0.301
same,glycan array binding signal (z-score),[14],-0.325
same,glycan array binding signal (z-score),[15],-0.143
same,glycan array binding signal (z-score),[16],-0.083
same,glycan array binding signal (z-score),[17],-0.306
same,glycan array binding signal (z-score),[18],-0.24
same,glycan array binding signal (z-score),[19],-0.227
same,glycan array binding signal (z-score),[20],-0.296
same,glycan array binding signal (z-score),[21],-0.165
same,glycan array binding signal (z-score),[22],-0.137
same,glycan array binding signal (z-score),[23],-0.023
same,glycan array binding signal (z-score),[24],-0.095
same,glycan array binding signal (z-score),[25],-0.15
same,glycan array binding signal (z-score),[26],-0.263
same,glycan array binding signal (z-score),[27],-0.252
same,glycan array binding signal (z-score),[28],-0.274
same,glycan array binding signal (z-score),[29],-0.229
same,glycan array binding signal (z-score),[30],-0.273
same,glycan array binding signal (z-score),[31],-0.193
same,glycan array binding signal (z-score),[32],-0.205
same,glycan array binding signal (z-score),[33],0.328
same,glycan array binding signal (z-score),[34],-0.202
same,glycan array binding signal (z-score),[35],-0.241
same,glycan array binding signal (z-score),[36],-0.136
same,glycan array binding signal (z-score),[37],-0.17
same,glycan array binding signal (z-score),[38],-0.173
same,glycan array binding signal (z-score),[39],-0.174
same,glycan array binding signal (z-score),[40],-0.209
same,glycan array binding signal (z-score),[41],-0.107
same,glycan array binding signal (z-score),[42],-0.156
same,glycan array binding signal (z-score),[43],-0.236
same,glycan array binding signal (z-score),[44],-0.184
same,glycan array binding signal (z-score),[45],-0.19
same,glycan array binding signal (z-score),[46],-0.183
same,glycan array binding signal (z-score),[47],-0.304
same,glycan array binding signal (z-score),[48],-0.248
same,glycan array binding signal (z-score),[49],0.106
same,glycan array binding signal (z-score),[50],-0.103
same,glycan array binding signal (z-score),[51],-0.244
same,glycan array binding signal (z-score),[52],-0.313
same,glycan array binding signal (z-score),[53],-0.291
